These are yes or no findings as the source states them, for the method shown. In cells and extracts the contact can be indirect. Some results given as binding are weak or reduced against the parent protein; the word gives no strength. For part of these data: Tags and fused reporters may be left off the sequences shown.

Sequences of proteins named here, by UniProt entry; tags and fusion partners are left off.
UniProt Q99836: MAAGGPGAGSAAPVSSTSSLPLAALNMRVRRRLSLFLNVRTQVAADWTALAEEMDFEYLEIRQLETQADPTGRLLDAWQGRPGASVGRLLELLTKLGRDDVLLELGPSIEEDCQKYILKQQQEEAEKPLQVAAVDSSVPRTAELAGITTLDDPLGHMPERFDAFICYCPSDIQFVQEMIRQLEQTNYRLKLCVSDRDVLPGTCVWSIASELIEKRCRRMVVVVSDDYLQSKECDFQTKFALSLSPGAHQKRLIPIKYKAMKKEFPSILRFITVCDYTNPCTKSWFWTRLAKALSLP
UniProt O43734: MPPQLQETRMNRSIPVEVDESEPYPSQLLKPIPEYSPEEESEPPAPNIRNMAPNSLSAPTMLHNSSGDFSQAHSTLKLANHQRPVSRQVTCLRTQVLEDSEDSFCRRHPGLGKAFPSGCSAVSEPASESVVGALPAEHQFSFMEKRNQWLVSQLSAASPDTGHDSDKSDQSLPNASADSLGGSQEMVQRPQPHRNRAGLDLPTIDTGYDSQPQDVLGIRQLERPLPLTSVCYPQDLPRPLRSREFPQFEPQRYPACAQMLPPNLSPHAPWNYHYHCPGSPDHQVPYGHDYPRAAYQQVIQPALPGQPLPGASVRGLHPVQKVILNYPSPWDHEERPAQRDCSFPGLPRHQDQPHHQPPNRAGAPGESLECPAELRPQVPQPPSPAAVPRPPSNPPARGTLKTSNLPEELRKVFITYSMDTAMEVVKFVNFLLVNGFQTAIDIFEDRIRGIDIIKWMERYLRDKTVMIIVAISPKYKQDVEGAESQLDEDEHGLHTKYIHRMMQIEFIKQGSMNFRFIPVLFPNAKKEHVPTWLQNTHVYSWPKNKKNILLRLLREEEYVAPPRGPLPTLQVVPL

Test [1] has as its target MyD88 (myeloid differentiation factor 88) (human (endogenous in 16HBE14o)) (UniProt Q99836). Put plainly: condition: only cells pre-conditioned with 1 μM morphine for 24 hours; proximity ligation; as a3, but cells pre-conditioned with 1 μM morphine for 24 hours.
In test [2] the target is T1, IL-17A receptor (IL-17R) (human (endogenous in 16HBE14o)) (UniProt Q96F46).
T1 sequence: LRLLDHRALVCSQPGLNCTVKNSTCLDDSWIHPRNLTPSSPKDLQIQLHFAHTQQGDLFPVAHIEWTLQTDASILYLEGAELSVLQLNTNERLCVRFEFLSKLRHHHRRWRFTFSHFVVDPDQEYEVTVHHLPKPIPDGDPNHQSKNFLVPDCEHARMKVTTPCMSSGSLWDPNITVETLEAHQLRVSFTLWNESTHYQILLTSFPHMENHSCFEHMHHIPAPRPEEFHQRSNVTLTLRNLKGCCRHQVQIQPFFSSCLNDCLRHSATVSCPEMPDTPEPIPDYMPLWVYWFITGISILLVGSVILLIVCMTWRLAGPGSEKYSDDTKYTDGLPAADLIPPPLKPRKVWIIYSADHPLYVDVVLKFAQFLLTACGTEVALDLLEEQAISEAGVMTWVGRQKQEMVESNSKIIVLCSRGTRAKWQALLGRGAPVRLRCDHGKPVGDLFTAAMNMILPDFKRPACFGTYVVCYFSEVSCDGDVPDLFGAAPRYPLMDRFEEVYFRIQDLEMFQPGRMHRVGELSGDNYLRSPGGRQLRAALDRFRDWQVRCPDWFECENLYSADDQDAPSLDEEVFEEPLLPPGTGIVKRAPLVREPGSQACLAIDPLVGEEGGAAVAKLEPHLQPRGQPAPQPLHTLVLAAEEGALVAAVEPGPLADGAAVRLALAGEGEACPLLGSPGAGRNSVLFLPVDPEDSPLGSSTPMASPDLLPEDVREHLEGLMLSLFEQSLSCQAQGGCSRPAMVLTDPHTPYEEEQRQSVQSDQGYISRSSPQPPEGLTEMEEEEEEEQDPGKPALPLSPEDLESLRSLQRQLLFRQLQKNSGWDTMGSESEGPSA
Put plainly: proximity ligation; 16HBE14o cells pre-conditioned with saline for 24 hours, treated with 20 nM recombinant IL-17 or 1 μg/ml PL for 15, 30 and 60 minutes; fixed with 10% formalin, permeabilised; primary antibody pairs IL-17R-Act1 or MyD88-Act1 and PLA probes (Olink).

Test [3] addresses MyD88 (myeloid differentiation factor 88) (human (endogenous in 16HBE14o)) (UniProt Q99836). Described as above.
For a further test, the target named is T2, flag-tagged IL-17R (UniProt Q96F46).
T2 sequence: T1 sequence
Put plainly: co-IP; 16HBE14o cells transfected with flag-tagged IL-17R or MyD88, pre-conditioned with saline for 24 hours, PL for 30 mins; interactions fixed in cells with a cross-linker (DSP in the methods, DSS in the results); RIPA lysate on flag capture resin, eluted with 3X flag peptide; western blot. On the technique in general: In western blotting, separated proteins are transferred to a membrane and probed.

A further test concerns the target flag-tagged MyD88 (UniProt Q99836). The description is as above.

Turning to Act1/CIKS (from UniProt O43734 1-574), the binding entry is reported as “no binding” in test [1]; “binds” in test [2]; “binds” in test [3]; “binds” with flag-tagged IL-17R; “binds” with flag-tagged MyD88.
Take “MyD88 (myeloid differentiation factor 88) (from UniProt Q99836 1-296)”: the binding entry with flag-tagged IL-17R is “binds”.

The values above are taken from article PMC4466887.
